Not every entry of the source has a single result; some have several. The other results are left out here. The source may hold further records. Results that share an entry are repeats across runs, samples, wells, individuals or studies.
System: 328373-195-R-J1-PDC complex spheroids, viability % test/control
Test: Anticancer human tumor 328373-195-R-J1-PDC patient-derived head and neck squamous carcinoma cell line growth inhibition [CLK]
Conditions: for viability, T/C: stronger effect = lower value
Source text: A high-throughput screen of multi-cell type tumor spheroids was designed to identify active combinations of […] and targeted small molecules. Complex spheroids include a stromal component modeled by human endothelial cells (HUVEC) and fibroblasts modeled by human mesenchymal stem cells (MSCs). The concentration ranges selected for each drug and investigational agent were based upon clinically achievable concentrations if the clinical Cmax of the agent was known.
Compounds. The drugs and investigational agents: cirtuvivint (SM08502; NSC835563), CC-671 (NSC850746), vemurafenib (NSC761431), tapotoclax (NSC804041), sotorasib (NSC818433), adagrasib (NSC831453), MRTX-1133 (NSC836407), BAY2416964 (NSC825713), copanlisib (NSC816437), inavolisib (NSC800729), abemaciclib (NSC768073), osimertinib (NSC779217), entinostat (NSC756642), eltanexor (KPT-8602, NSC794443), venetoclax (NSC766270), ceralasertib (NSC777638), bortezomib (NSC756655), olaparib (NSC753686), talazoparib (NSC767125), alisertib (NSC759677), peposertib (NSC802822), gemcitabine (NSC613327), 5-fluorouracil (NSC19893), SN-38 (NSC673596), oxaliplatin (NSC266046), paclitaxel (NSC125973), and doxorubicin (NSC123127), were obtained from the National Cancer Institute (NCI) Developmental Therapeutics Program Chemical Repository. The FDA-approved anticancer drug set is available from the Developmental Therapeutics Program at https://dtp.cancer.gov/organization/dscb/obtaining/available plates.htm. […] The stock solutions were prepared in dimethyl sulfoxide (DMSO, Sigma-Aldrich, St. Louis, MO, cat. D2650), except for the platinum complexes which were prepared in saline (Quality Biological, Gaithersburg, MD, cat. 114-055-101), at 800-fold the tested concentration and stored at -70 degrees C prior to their use. All drugs and investigational agents were tested over a range starting from a high concentration at or near the clinical Cmax and decreasing in half-log increments. If the clinical Cmax for an agent had not been determined, the highest concentration tested was 10 microM.
Cell Culture. […]
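Note: spheroids exposed to the agents for 7 days.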

SMILES	viability, T/C (compound alone 10 µM)	viability, T/C (compound alone 0.0316 µM)	IC50 (compound alone, run of 08/15/2023)
COC1C=CCC(C)C(C)S(=O)(=O)NC(=O)c2ccc3c(c2)N(CC2CCC21)CC1(CCCc2cc(Cl)ccc21)CO3 (stereo not drawn)	45.4% and 2.48%	–	–
CNC(=O)c1ccc(Nc2nc(OC3CCCC3)c3c(-c4ccc5nc(C)oc5c4)c[nH]c3n2)c(OC)c1	–	51.8, 47.5, 67.8, 75.1, 55.5, 58.5, 60, 64.7, 62.7, 57.6, 72.7, 66.7%	45.4 nM, 38.2 nM, 33.3 nM, < 31.6 nM, 49.8 nM, 36.6 nM, 39.2 nM, 40 nM, 43.7 nM, 42.4 nM, 48.4 nM, 45.6 nM

From PubChem BioAssay AID2060620 (Molecular Pharmacology Branch, DTP, NCI, 2025)
